This passage reports self-cleavage results from the RNAGym collection of RNA variant scans (doi:10.7554/elife.90254).

Read counts are not given, so values of variants with three or more changes are uncertain.

The labels stand for the following.
B1: LINE1-full (parent)
chain: UACGUAGGUGGUUUUCCCCUGAUAGUGCUAAGGGGGCCUGGAAGUUUGGACUGGGCAGAGCUCAACACAGCGUGGCAAAGUGGCUGUGGCUAGACUGCCUCUCUGGAUUCCUCGUCACUCAGCAGGGCAUCUCUGAGAGAAAUGCC

This data set covers variants of B1. Description: self-cleavage, relative activity (ratio to wild type); higher = more cleavage; in vitro, sequencing; the parent is a self-cleaving ribozyme.
For the variant C17G G36C A94G, the self-cleavage was 0.32.

Consider U15C A50G G55A A79U, for which the self-cleavage was 0.1.

Turning to U20A U73A G122U A136G, the self-cleavage was 1.76.

For U20C A59G A64U U130C, the self-cleavage was found to be 0.15.

Consider A43U U85C U115C, for which the self-cleavage was 0.24.

For A22G A31U U45C C66U, the self-cleavage was determined as 0.15.

For U26C U39C A64U C133U G139A, the self-cleavage was determined as 0.62.

On to U130A A136G U143C, for which the self-cleavage is 1.36.

U14C A30G C51G U100C: the self-cleavage is 0.9.

Consider U12A U26A U112A, for which the self-cleavage was 1.15.

Regarding U5A U81A C103U U104C, the self-cleavage was determined as 1.74.

For U5C U39A A129G, the self-cleavage was determined as 1.5.

With A92U A142G U143C, the self-cleavage is 0.82.

Regarding U14A U47A C116U, the self-cleavage worked out at 0.97.

Take U12G A43G A124U A138U: the self-cleavage was 1.26.

As to U12G A43G G72A, the self-cleavage turned out to be 0.71.

For the variant A77G U115A G139U, the self-cleavage was 2.06.

As to U9C A31G G32A C68U A77G U87C, the self-cleavage was 0.11.

Take A2G U85C U108C C118U A142G: the self-cleavage turned out to be 0.

On to U15C U62A U109C, for which the self-cleavage was 0.04.

As for G11A U15C U39C U52C, the self-cleavage was 0.72.

For A64G G93A U108C, the self-cleavage was 0.03.

G34A A64U A124U: the self-cleavage is 0.21.

Take A94G U104A U134A: the self-cleavage turned out to be 0.61.

As for C37G A43G U46G A57G U73C G75A U87C A121U, the self-cleavage stood at 0.

For the variant U13C U100C U134C, the self-cleavage was found to be 0.84.

For the variant U20C U85C U96C, the self-cleavage is 0.19.

With U14C C28G A142G, the self-cleavage worked out at 0.59.

Consider U96C A121U A141G, for which the self-cleavage is 0.15.

On to A24G A94U U102C, for which the self-cleavage is 0.3.

For U5A C111A A141G, the self-cleavage stood at 1.51.

As for G21A A69G G89A, the self-cleavage was found to be 0.05.

With C68U A79U A117G A140G, the self-cleavage worked out at 0.11.

Regarding A2U U39A U62C U96C A121G U132C, the self-cleavage was determined as 0.

Take U5C C84U A140G: the self-cleavage is 0.12.

Regarding U45C G49U U100C, the self-cleavage turned out to be 1.62.

As for U73C U108C A129G, the self-cleavage amounted to 0.48.

G106A U108C U115A: the self-cleavage was 1.64.

On to U12G U108C U134C, for which the self-cleavage came to 0.43.

Regarding U26G G54A U62C, the self-cleavage is 0.15.

For the variant U15A G70A U100C U134A A140G, the self-cleavage amounted to 0.38.

Regarding U12C U20A U39A G74U A94U U115C U134C A142G, the self-cleavage worked out at 0.77.

Consider A31G A69G A138G, for which the self-cleavage stood at 0.54.

For the variant A50U U52C U132C, the self-cleavage is 0.

On to U12C C51U A138G A140U, for which the self-cleavage came to 1.62.

In the case of U9C C16U A117G, the self-cleavage was 1.71.

As to U13C C37G U62C A136G, the self-cleavage amounted to 0.11.

With A64G U112C U132C, the self-cleavage was 0.

As to U9C G105A A117G, the self-cleavage worked out at 1.66.

On to U12C A94G A140G, for which the self-cleavage was determined as 0.15.

As to U13C U108C U115C, the self-cleavage was determined as 0.

Take U9A U130A U132C: the self-cleavage was 1.12.

Take C19U A78G U130C: the self-cleavage was determined as 0.65.

On to U15A A57G U115A A129U, for which the self-cleavage is 0.3.

On to U87A U104C U132C, for which the self-cleavage stood at 0.

Regarding U9A A138G C145U, the self-cleavage came out at 0.98.

Consider U13C U91C U115A, for which the self-cleavage came out at 0.91.

For the variant A42G U108C A138C, the self-cleavage was 1.67.

Take U12C U73C A138C: the self-cleavage was determined as 2.3.

U73A U85C U109C U112C C120U: the self-cleavage amounted to 0.08.

As for G44A U45G A124G, the self-cleavage was determined as 1.01.

Regarding U23C U26A A121U, the self-cleavage is 0.86.

With U15C A69G A79U, the self-cleavage was found to be 0.44.

As to U15A U102C U134C, the self-cleavage stood at 0.

For the variant U1C U46C A136G, the self-cleavage stood at 1.36.

For U14C U46C C51U U81A, the self-cleavage was 1.96.

Regarding U15C G36A A42G A64G A136G, the self-cleavage was determined as 0.47.

With G49C A67C U85A, the self-cleavage was 0.02.

As for A2U U12C U13C U134C, the self-cleavage is 0.69.

With U20C G74A A140G, the self-cleavage was found to be 1.79.

Take U26C U39A A78G U85A U104A U143C: the self-cleavage amounted to 0.06.

Regarding G41U A43U U47C A121G A124U, the self-cleavage worked out at 1.79.

Regarding U39C G53U U91A A92G, the self-cleavage was 0.11.

U26C U85A G93A G126A A141U: the self-cleavage came out at 0.01.

For the variant U5C U13C A42U U46C A79G, the self-cleavage was found to be 1.53.

With U12G A64G C71U U96A U100C, the self-cleavage turned out to be 0.12.

For U14C U39C U52A A65G, the self-cleavage came to 0.04.

Turning to U20C A64U U132C, the self-cleavage was 0.

Regarding A6G A57C G88A U132C, the self-cleavage came out at 0.12.

On to U13C A50G U87C, for which the self-cleavage came to 0.

On to U85A U87C A140G, for which the self-cleavage was 0.2.

In the case of U91C U96A U134A, the self-cleavage was 0.02.

G4A A42G U45C A69U A94U: the self-cleavage was determined as 0.05.

In the case of U29C U85C U108C, the self-cleavage was 0.

Regarding A6U U20A U119C, the self-cleavage amounted to 1.77.

U73A U87A A138G A141G: the self-cleavage is 0.01.

As to A22G A94U U134C, the self-cleavage worked out at 0.28.

With G7A A30U A92C U112C U143A, the self-cleavage was determined as 0.

Consider G34A U62G A79G, for which the self-cleavage came out at 0.05.

Consider U14C G80A A141G, for which the self-cleavage came to 1.57.

On to A107G U119A A142G U143C, for which the self-cleavage was found to be 1.25.

As to G53U U119C U132C, the self-cleavage turned out to be 1.52.

Take C18U U62A U102C C146U: the self-cleavage came out at 0.05.

As to U29A A30G C56U U112G, the self-cleavage was 0.09.

Take U13C U26A A107U U132C: the self-cleavage was 0.81.

For the variant U39C U46A A124G G127A, the self-cleavage was 0.87.

Turning to U12C A43G G82A, the self-cleavage was 1.35.

On to A24G A69G U73A, for which the self-cleavage turned out to be 0.37.

Consider U14C U23C A138G, for which the self-cleavage was 0.77.

Regarding C101A A117G A140G, the self-cleavage is 1.53.

Regarding U9C U47A U115A U134A, the self-cleavage was determined as 0.79.

Turning to A67G G70A A94G, the self-cleavage turned out to be 0.06.

Consider C17A G32A G72A U143C, for which the self-cleavage is 0.91.

With A2C A31G G32U, the self-cleavage was found to be 0.8.

With A69U A79G U119C, the self-cleavage amounted to 0.29.

Turning to U14C G35A A50G A79G U134C, the self-cleavage is 0.75.

Take U13C U29C U52A U85C: the self-cleavage was 0.6.

On to U1C A6U U87A, for which the self-cleavage was 0.

Regarding G34A G49A A77G, the self-cleavage was 1.27.

As to U5A U62A A78G U112C, the self-cleavage was found to be 0.07.

As for U14C A57U A129U, the self-cleavage turned out to be 0.22.

For A31C A65G A78G A79U C128U, the self-cleavage worked out at 0.11.

Regarding U20A A57G U109C U115C, the self-cleavage was determined as 0.

For A31U C99A A141G, the self-cleavage worked out at 0.34.

With A2G U13C U81A U100C G106A, the self-cleavage was 1.95.

In the case of U12C A92U A129G U134C, the self-cleavage came to 1.53.

On to U14A A107G C113A, for which the self-cleavage is 0.77.

Consider C84U C101A A117G A124G, for which the self-cleavage turned out to be 0.14.

Turning to A6G U9C A121G, the self-cleavage amounted to 1.64.

Regarding A22G U62C A141G, the self-cleavage is 0.24.

As for U47G G54A U73C, the self-cleavage was 0.17.

Turning to U9C C17U A64U U81A U91C U119C A140U, the self-cleavage stood at 0.25.

Take U62C U115G U119C: the self-cleavage was determined as 0.26.

For the variant U26C C37U A67G A77U U115G A141G, the self-cleavage was determined as 0.69.

With U12G U29C U130C, the self-cleavage came to 0.97.

For the variant U29C G55C A69U U100C, the self-cleavage was determined as 0.37.

Take A92U U132C U134G: the self-cleavage stood at 0.5.

With A57G U108C U109A, the self-cleavage is 1.02.

For A31G U46C U81C A117C, the self-cleavage came to 0.

As to U12A A64G A136U, the self-cleavage worked out at 0.28.

As for U12C G88A U119C, the self-cleavage was determined as 0.15.

Take U5C G127U U143A: the self-cleavage was 1.06.

On to G8C C19U U62C, for which the self-cleavage was 0.

For A31C A42G G53A A57G A107G, the self-cleavage turned out to be 0.7.

For U20C A31U A77G U108C C110U, the self-cleavage is 2.87.

U87C U100C A136U: the self-cleavage was found to be 0.76.

As to A43G U87A U108C G114A, the self-cleavage amounted to 0.17.

A79G U100C U132C U143C: the self-cleavage was 1.84.

A22G U112A A136G: the self-cleavage was determined as 1.23.

As to G48A A107U A117G C128U, the self-cleavage was 1.74.

Regarding A43G U108C U143C, the self-cleavage turned out to be 0.81.

As to U26C A31G A65G, the self-cleavage stood at 0.17.

For the variant U47C C99U U100A U119C, the self-cleavage worked out at 1.9.

Take A78U A117G A129U: the self-cleavage came out at 2.5.

Consider U5A U115A U132C, for which the self-cleavage turned out to be 0.91.

U26C A79G G144A: the self-cleavage was 1.02.

For U46G A57G U109A, the self-cleavage stood at 0.09.

As for U12G C61U A129U, the self-cleavage came to 0.14.

Regarding A64U A77G A79C U134A, the self-cleavage amounted to 0.68.

For the variant U26C U39A U102A, the self-cleavage stood at 1.26.

On to U15C U96A U108C, for which the self-cleavage is 0.09.

With U39C U108A C113U, the self-cleavage was found to be 0.49.

On to U20C U39C U62C A65U U104A U112A, for which the self-cleavage turned out to be 0.1.

Regarding A50G U85A U104C, the self-cleavage worked out at 0.

For U23C A64G U119A, the self-cleavage was 0.61.

In the case of U9A U14C A57G, the self-cleavage is 1.28.

As to U73C C120U A138U U143A, the self-cleavage stood at 1.62.

With A50U A94G U112C, the self-cleavage worked out at 0.

For A42U U81A A138G, the self-cleavage turned out to be 0.46.

As to U12A U62A C63U U87A, the self-cleavage is 0.07.

On to U1C C19U U132C, for which the self-cleavage amounted to 0.81.

As to U5A U85A U115C A121G, the self-cleavage is 0.22.

In the case of U14G G49U U87C, the self-cleavage worked out at 0.14.

For U9C A43G C56U A138G, the self-cleavage is 0.18.

For U14C C37G U96A, the self-cleavage is 0.

Regarding U12C U45C A57G U87C, the self-cleavage came to 0.

Take U73A U81A C90A U108C A117U: the self-cleavage was found to be 0.18.
